Experimental data as given in the supplement of paper PMC8728848.
The list shows a part of the results.

Experiments:
Test in all cases: glycan array binding signal (z-score within array); higher = stronger binding
Settings in all cases: glycan notation: IUPAC condensed, linker removed
[1] = target: Gal3S(b1-3)[Fuc(a1-4)]GlcNAc
Summary of the method: (§1)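 From the Consortium for Functional Glycomics database, 3228 arrays were curated, keeping only those whose protein sequence was available. Binding is given as a within-array Z-score averaged across arrays sharing a protein sequence and across linkers. Negative Z-scores can be read as non-binding.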

Gal3S(b1-4)Glc = target: Gal3S(b1-4)Glc
Summary of the method: as §1

Gal3S(b1-4)Glc6S = target: Gal3S(b1-4)Glc6S
Summary of the method: as §1

Gal3S(b1-4)GlcNAc = target: Gal3S(b1-4)GlcNAc
Summary of the method: as §1

[2] = target: Gal3S(b1-4)[Fuc(a1-3)]Glc6S
Summary of the method: as §1

[3] = target: Gal3S(b1-4)[Fuc(a1-3)]GlcNAc
Summary of the method: as §1

[4] = target: Gal3S(b1-4)[Fuc(a1-3)]GlcNAc6S
Summary of the method: as §1

Gal3S4S(b1-4)GlcNAc = target: Gal3S4S(b1-4)GlcNAc
Summary of the method: as §1

Gal3S6S(b1-4)GlcNAc = target: Gal3S6S(b1-4)GlcNAc
Summary of the method: as §1

Gal3S6S(b1-4)GlcNAc6S = target: Gal3S6S(b1-4)GlcNAc6S
Summary of the method: as §1

Gal4S(b1-4)GlcNAc = target: Gal4S(b1-4)GlcNAc
Summary of the method: as §1

Gal4S6S(b1-4)GlcNAc = target: Gal4S6S(b1-4)GlcNAc
Summary of the method: as §1

Gal6P(b1-4)GlcNAc = target: Gal6P(b1-4)GlcNAc
Summary of the method: as §1

Gal6S(b1-3)GlcNAc = target: Gal6S(b1-3)GlcNAc
Summary of the method: as §1

Gal6S(b1-3)GlcNAc6S = target: Gal6S(b1-3)GlcNAc6S
Summary of the method: as §1

Gal6S(b1-4)Glc = target: Gal6S(b1-4)Glc
Summary of the method: as §1

Gal6S(b1-4)Glc6S = target: Gal6S(b1-4)Glc6S
Summary of the method: as §1

Gal6S(b1-4)GlcNAc = target: Gal6S(b1-4)GlcNAc
Summary of the method: as §1

Gal6S(b1-4)GlcNAc6S = target: Gal6S(b1-4)GlcNAc6S
Summary of the method: as §1

GalNAc(a1-3)Gal = target: GalNAc(a1-3)Gal
Summary of the method: as §1

GalNAc(a1-3)GalNAc = target: GalNAc(a1-3)GalNAc
Summary of the method: as §1

[5] = target: GalNAc(a1-3)GalNAc(b1-3)Gal(a1-4)Gal(b1-4)Glc
Summary of the method: as §1

[6] = target: GalNAc(a1-3)GalNAc(b1-3)Gal(a1-4)Gal(b1-4)GlcNAc
Summary of the method: as §1

GalNAc(b1-3)Gal = target: GalNAc(b1-3)Gal
Summary of the method: as §1

[7] = target: GalNAc(b1-3)Gal(a1-4)Gal(b1-4)GlcNAc
Summary of the method: as §1

[8] = target: GalNAc(b1-3)Gal(a1-4)Gal(b1-4)GlcNAc(b1-3)Gal(b1-4)Glc
Summary of the method: as §1

[9] = target: GalNAc(b1-3)Gal(a1-6)Gal(b1-4)Glc
Summary of the method: as §1

GalNAc(b1-3)GalNAc = target: GalNAc(b1-3)GalNAc
Summary of the method: as §1

GalNAc(b1-3)GlcNAc = target: GalNAc(b1-3)GlcNAc
Summary of the method: as §1

GalNAc(b1-4)Gal(b1-4)Glc = target: GalNAc(b1-4)Gal(b1-4)Glc
Summary of the method: as §1

GalNAc(b1-4)GlcNAc = target: GalNAc(b1-4)GlcNAc
Summary of the method: as §1

[10] = target: GalNAc(b1-4)GlcNAc(b1-2)Man
Summary of the method: as §1

[11] = target: GalNAc(b1-4)GlcNAc(b1-2)Man(a1-3)[GalNAc(b1-4)GlcNAc(b1-2)Man(a1-6)]Man(b1-4)GlcNAc(b1-4)GlcNAc
Summary of the method: as §1

[12] = target: GalNAc(b1-4)GlcNAc(b1-3)GalNAc(b1-4)GlcNAc
Summary of the method: as §1

GalNAc(b1-4)GlcNAc6S = target: GalNAc(b1-4)GlcNAc6S
Summary of the method: as §1

GalNAc(b1-6)GalNAc = target: GalNAc(b1-6)GalNAc
Summary of the method: as §1

GalNAc3S(b1-4)GlcNAc = target: GalNAc3S(b1-4)GlcNAc
Summary of the method: as §1

GalNAc3S(b1-4)GlcNAc3S = target: GalNAc3S(b1-4)GlcNAc3S
Summary of the method: as §1

[13] = target: GalNAc3S(b1-4)[Fuc(a1-3)]GlcNAc
Summary of the method: as §1

GalNAc4S6S(b1-4)GlcNAc = target: GalNAc4S6S(b1-4)GlcNAc
Summary of the method: as §1

GalNAc6S(b1-4)GlcNAc = target: GalNAc6S(b1-4)GlcNAc
Summary of the method: as §1

Glc(a1-4)Glc = target: Glc(a1-4)Glc
Summary of the method: as §1

[14] = target: Glc(a1-4)Glc(a1-4)Glc(a1-4)Glc
Summary of the method: as §1

Glc(a1-6)Glc(a1-6)Glc = target: Glc(a1-6)Glc(a1-6)Glc
Summary of the method: as §1

[15] = target: Glc(a1-6)Glc(a1-6)Glc(a1-6)Glc
Summary of the method: as §1

B1: SSP1 (Sclerotinia sclerotiorum), XP_001584968 (protein)
chain: MGSSHHHHHHSSGLVPRGSHMSLLTTELACTSAPDQVLHLFFQDGQNILEARSPDGGNVWTTQDTIIAKDGDYNGSSMTCYYVDKDANFDNQPSIHLLYMNKDKQLTEKVKRMKGDNPIWEDAKVPDEVRKGPEQYSKLTSGSFNQGTGWNPNGSQWAYFSASKDGKMGIVEIRRTPKDPWHTETILEEKWGDELPGTALACVIGNGKIRVFLQHHDYSIILYENQNNTWHDRGTFIPKDKVQATTPLACTMTKDGSVHLFYVSKSNKIIHCTDGKKEEELINFFPGSKLGATSVENKITLFFRNLNPVNEVGTLENENGSWKHGTTVIPA
[1]
  glycan array binding signal (z-score): -0.396
Gal3S(b1-4)Glc
  glycan array binding signal (z-score): 1.38
Gal3S(b1-4)Glc6S
  glycan array binding signal (z-score): 0.318
Gal3S(b1-4)GlcNAc
  glycan array binding signal (z-score): 0.243
[2]
  glycan array binding signal (z-score): 0.27
[3]
  glycan array binding signal (z-score): 0.403
[4]
  glycan array binding signal (z-score): 0.615
Gal3S4S(b1-4)GlcNAc
  glycan array binding signal (z-score): -0.405
Gal3S6S(b1-4)GlcNAc
  glycan array binding signal (z-score): -0.017
Gal3S6S(b1-4)GlcNAc6S
  glycan array binding signal (z-score): -0.049
Gal4S(b1-4)GlcNAc
  glycan array binding signal (z-score): -0.478
Gal4S6S(b1-4)GlcNAc
  glycan array binding signal (z-score): -0.291
Gal6P(b1-4)GlcNAc
  glycan array binding signal (z-score): -0.025
Gal6S(b1-3)GlcNAc
  glycan array binding signal (z-score): -0.223
Gal6S(b1-3)GlcNAc6S
  glycan array binding signal (z-score): -0.222
Gal6S(b1-4)Glc
  glycan array binding signal (z-score): 0.043
Gal6S(b1-4)Glc6S
  glycan array binding signal (z-score): 0.367
Gal6S(b1-4)GlcNAc
  glycan array binding signal (z-score): -0.097
Gal6S(b1-4)GlcNAc6S
  glycan array binding signal (z-score): -0.103
GalNAc(a1-3)Gal
  glycan array binding signal (z-score): 0.422
GalNAc(a1-3)GalNAc
  glycan array binding signal (z-score): -0.456
[5]
  glycan array binding signal (z-score): -0.179
[6]
  glycan array binding signal (z-score): -0.19
GalNAc(b1-3)Gal
  glycan array binding signal (z-score): 2.2
[7]
  glycan array binding signal (z-score): -0.233
[8]
  glycan array binding signal (z-score): 0.205
[9]
  glycan array binding signal (z-score): -0.58
GalNAc(b1-3)GalNAc
  glycan array binding signal (z-score): -0.368
GalNAc(b1-3)GlcNAc
  glycan array binding signal (z-score): 0.44
GalNAc(b1-4)Gal(b1-4)Glc
  glycan array binding signal (z-score): -0.27
GalNAc(b1-4)GlcNAc
  glycan array binding signal (z-score): -0.197
[10]
  glycan array binding signal (z-score): 0.345
[11]
  glycan array binding signal (z-score): 0.185
[12]
  glycan array binding signal (z-score): 0.184
GalNAc(b1-4)GlcNAc6S
  glycan array binding signal (z-score): -0.132
GalNAc(b1-6)GalNAc
  glycan array binding signal (z-score): -0.286
GalNAc3S(b1-4)GlcNAc
  glycan array binding signal (z-score): -0.311
GalNAc3S(b1-4)GlcNAc3S
  glycan array binding signal (z-score): 0.044
[13]
  glycan array binding signal (z-score): 0.067
GalNAc4S6S(b1-4)GlcNAc
  glycan array binding signal (z-score): -0.415
GalNAc6S(b1-4)GlcNAc
  glycan array binding signal (z-score): -0.287
Glc(a1-4)Glc
  glycan array binding signal (z-score): -0.404
[14]
  glycan array binding signal (z-score): -0.204
Glc(a1-6)Glc(a1-6)Glc
  glycan array binding signal (z-score): -0.371
[15]
  glycan array binding signal (z-score): -0.043
